Assay results taken from PubChem BioAssay AID588855 (National Center for Advancing Translational Sciences (NCATS), 2011).
About 5,000 (1.2%) of roughly 410,000 compounds were called active. The shares of active, inactive and inconclusive entries below differ from those in the screen. Calls follow the shape of the dose curve; as a rule, active = well fitted inhibition curve with a large enough effect; inconclusive = small, poorly fitted or top-dose-only effect; inactive = no such curve, though single readings can be large or run the other way. A potency beside an inconclusive call is a rough fit, not a confirmed value.

test: qHTS for Inhibitors of TGF-b; settings: HepG2 CAGA-GFP TGF-b/SMAD3 reporter, GFP fluorescence, 18 h, TGF-beta stimulated, 500 pg/mL final; series mostly up to 46.1 µM; also: nearly all actives have a fitted effect of over 65% in size
Outline: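 First, reporter cells (HEPG2 CAGA-GFP) rested 2 h at 37 degrees C. Next, compounds were pinned in and TGF-beta added to 500 pg/mL final. After 18 h, GFP was imaged per cell and summed per well.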
Potency is read from the fitted curve at half-maximal effect; tags tell the direction and shape of the fitted curve.

**Q.** Which Potency does the source give for `O=C(c1ccccc1)N1CCc2cc(CNS(=O)(=O)c3ccccc3Cl)ccc21` here?
**A.** The Potency was “inactive”.

**Q.** For `COc1cccc(-c2nnc(NC(=O)c3ccc(S(=O)(=O)N4CCOCC4)cc3)o2)c1`, which Potency is on record?
**A.** The Potency was “inactive”.

**Q.** For `CC(C)Nc1nc(Cl)nc(N(C#N)CN2C(=O)c3ccccc3S2(=O)=O)n1`, which Potency is on record?
**A.** Its Potency is inconclusive: 17.8 µM [inhibitor, partial curve, poor fit].

**Q.** For `CC(=O)Nc1ccc(S(=O)(=O)N2CCc3c(Cl)cccc3C2)cc1`, which Potency is on record?
**A.** Its Potency is inconclusive: 7.94 µM [inhibitor, partial curve, poor fit].

**Q.** Which Potency does the source give for `CN(C)CCNC(=O)c1cc2c(s1)-c1ccc(Cl)cc1SC2` here?
**A.** Its Potency is active: 11.2 µM.

**Q.** Which Potency does the source give for `CC(=O)Nc1cccc(-c2ccnc3c2CC(C)(C(=O)NCc2ccc(N(C)C)cc2)O3)c1` (stereo not drawn) here?
**A.** The Potency was inconclusive: 15.8 µM [inhibitor, single point].

**Q.** For `CCOC(=O)Cc1csc(NC(=O)c2cc(C)on2)n1`, which Potency is on record?
**A.** Its Potency is “inactive”.

**Q.** For `c1ccc(-[n+]2nc(Nc3cccc4ccccc34)sc2-c2c3ccccc3cc3ccccc23)cc1`, which Potency is on record?
**A.** The Potency was inconclusive: 10 µM [inhibitor, partial curve, poor fit].

**Q.** Which Potency does the source give for `O=C(NCCc1ccccc1)c1ccc(Cn2c(SCc3ccc(F)cc3)nc3cccnc32)cc1` here?
**A.** The Potency was “inactive”.

**Q.** Which Potency does the source give for `COCCNc1nc(C(C)(C)C)nc2c1nnn2Cc1ccccc1Cl` here?
**A.** Its Potency is inconclusive: 35.5 µM [inhibitor, single point].

**Q.** Which Potency does the source give for `Cc1ccccc1Nc1c(-c2ccsc2)nc2c(C)cccn12` here?
**A.** Its Potency is inconclusive: 31.6 µM [inhibitor, single point].

**Q.** For `COc1ccc(OC)c(S(=O)(=O)N(C)CC(=O)N2CCc3ccccc3C2)c1`, which Potency is on record?
**A.** Its Potency is inconclusive: 2.51 µM [inhibitor, full curve].

**Q.** For `CCc1ccc(OCC2c3cc(OC)c(OC)cc3CCN2C(=S)NC)cc1` (stereo not drawn), which Potency is on record?
**A.** The Potency was inconclusive: 35.5 µM [inhibitor, single point].

**Q.** For `COC(=O)C(C)N1C(=O)S/C(=C/c2cc(C)n(-c3ccccn3)c2C)C1=O` (stereo not drawn), which Potency is on record?
**A.** The Potency was “inactive”.

**Q.** Which Potency does the source give for `Cc1cnc(NC(=O)c2ccc(F)c(S(=O)(=O)N3CCOCC3)c2)s1` here?
**A.** Its Potency is inconclusive: 35.5 µM [inhibitor, single point].

**Q.** Which Potency does the source give for `CC(C)(C)C(=O)/C(=C/c1ccc(Cl)cc1)n1cncn1` here?
**A.** The Potency was active: 10 µM.

**Q.** Which Potency does the source give for `COc1cccc(/C=C2\Sc3ccc(C(=O)NCc4cccnc4)cc3N(C)C2=O)c1` here?
**A.** Its Potency is inconclusive: 35.5 µM [inhibitor, partial curve, poor fit].

**Q.** Which Potency does the source give for `COc1cccc(-n2c(C)nc3c(cnn3-c3ccc(Cl)cc3)c2=O)c1` here?
**A.** Its Potency is “inactive”.

**Q.** For `CCc1ccc(-n2nc3ccc(NC(=O)c4cc5ccccc5o4)cc3n2)cc1`, which Potency is on record?
**A.** The Potency was “inactive”.

**Q.** For `O=C(O)CN(Cc1ccco1)S(=O)(=O)c1ccccc1`, which Potency is on record?
**A.** The Potency was inconclusive: 2.82 µM [inhibitor, full curve].

**Q.** With `CCc1cnc(Nc2nc(C(N)Cc3ccc(Cl)cc3)cs2)nc1` (stereo not drawn) as the molecule, how does the Potency read?
**A.** Its Potency is inconclusive: 14.1 µM [inhibitor, single point].

**Q.** Which Potency does the source give for `O=C1/C(=C\c2ccc3ccccc3c2)CCCc2ccccc21` here?
**A.** Its Potency is “inactive”.

**Q.** For `CCCCN(CC)CCCNC(=O)CC1Oc2ccccc2NC1=O` (stereo not drawn), which Potency is on record?
**A.** The Potency was “inactive”.

**Q.** With `COc1ccc(NS(=O)(=O)c2ccc(C)c(C(=O)OC(C)C(=O)N3CCOCC3)c2)cc1` (stereo not drawn) as the molecule, how does the Potency read?
**A.** The Potency was inconclusive: 0.708 µM [inhibitor, partial curve, poor fit].

**Q.** For `CC1(C)OC(=O)C(=Cc2ccc(-c3ccc(S(N)(=O)=O)cc3)o2)C(=O)O1`, which Potency is on record?
**A.** Its Potency is inconclusive: 35.5 µM [inhibitor, single point].

**Q.** With `COC(=O)c1ccc(NC(=O)c2nc(S(=O)(=O)Cc3cccc(C)c3)ncc2Cl)cc1` as the molecule, how does the Potency read?
**A.** Its Potency is inconclusive: 11.2 µM [inhibitor, partial curve, poor fit].

**Q.** For `O=C(Nc1nnc(-c2ccc(Br)cc2)o1)C1=COCCO1`, which Potency is on record?
**A.** Its Potency is inconclusive: 0.1 µM [inhibitor, full curve, poor fit].

**Q.** For `CC(=O)c1ccc(NC(=O)CCc2c(C)nn(-c3ccc4nncn4n3)c2C)cc1`, which Potency is on record?
**A.** Its Potency is “inactive”.

**Q.** With `CC(C)n1c(=S)[nH]c2c1c(=O)[nH]c(=O)n2C` as the molecule, how does the Potency read?
**A.** Its Potency is “inactive”.

**Q.** For `Cc1ccc(-c2nnn(CC(=O)N(Cc3ccco3)C(C(=O)NC(C)(C)C)c3ccc(C)o3)n2)o1` (stereo not drawn), which Potency is on record?
**A.** The Potency was inconclusive: 3.98 µM [inhibitor, partial curve].

**Q.** For `N/C(=N\OC(=O)c1ccc2c(c1)OCO2)c1ccc(Cl)cc1`, which Potency is on record?
**A.** The Potency was inconclusive: 2.82 µM [inhibitor, single point].

**Q.** For `Cc1ccc(C(=O)c2ccccc2C(=O)OCC(=O)NCCc2ccc(Cl)cc2Cl)cc1`, which Potency is on record?
**A.** The Potency was inconclusive: 35.5 µM [inhibitor, single point].

**Q.** With `CCCc1cc(C(=O)N2CCN(C(c3ccccc3)c3ccccc3)CC2)no1` as the molecule, how does the Potency read?
**A.** The Potency was inconclusive: 17.8 µM [inhibitor, single point].

**Q.** For `O=C(Nc1ccc(CN2CCOCC2)cc1)c1cccs1`, which Potency is on record?
**A.** The Potency was inconclusive: 3.55 µM [inhibitor, single point].

**Q.** Which Potency does the source give for `CC(C)c1ccc(NC(=O)CNS(=O)(=O)c2ccc(F)cc2)cc1` here?
**A.** The Potency was “inactive”.

**Q.** For `Cc1ccc(SCC(=O)NNC(=O)c2ccccc2)c(C)c1`, which Potency is on record?
**A.** Its Potency is “inactive”.

**Q.** With `COCCOC(=O)C(C#N)c1nc2ccccc2nc1N1CCN(Cc2ccccc2)CC1` (stereo not drawn) as the molecule, how does the Potency read?
**A.** Its Potency is inconclusive: 14.1 µM [inhibitor, single point].

**Q.** Which Potency does the source give for `COc1cccc(-n2c(=O)c3sccc3n(CC(=O)NC3CCCC3)c2=O)c1` here?
**A.** The Potency was inconclusive: 35.5 µM [inhibitor, single point].

**Q.** Which Potency does the source give for `Cn1nnnc1Sc1ncnc2scc(-c3ccc(C#N)cc3)c12` here?
**A.** The Potency was inconclusive: 10 µM [inhibitor, partial curve, poor fit].

**Q.** Which Potency does the source give for `COc1ccc(OC)c(Nc2nc(N)nc(CSc3nnc(N)s3)n2)c1` here?
**A.** Its Potency is inconclusive: 12.6 µM [inhibitor, partial curve, poor fit].

**Q.** With `Cc1ccc(-c2nn(-c3ccccc3)cc2/C=N/NC(=O)c2ccncc2)o1` as the molecule, how does the Potency read?
**A.** The Potency was “inactive”.

**Q.** Which Potency does the source give for `COc1ccc(Cl)c(N2CCN(CCCNC(=O)Nc3ccc(C)cc3)CC2)c1` here?
**A.** The Potency was inconclusive: 35.5 µM [inhibitor, single point].

**Q.** For `CC(OC(=O)c1cc(=O)[nH]c2ccccc12)C(=O)Nc1ccc(Cl)cn1` (stereo not drawn), which Potency is on record?
**A.** The Potency was inconclusive: 17.8 µM [inhibitor, single point].

**Q.** For `CSc1ccc(Cn2c(C)c(C(=O)NCc3ccc(F)cc3)sc2=O)cc1`, which Potency is on record?
**A.** The Potency was “inactive”.

**Q.** With `Cc1ccc(NCC(=O)Nc2ccc(F)c(Cl)c2)cc1S(=O)(=O)N1CCOCC1` as the molecule, how does the Potency read?
**A.** The Potency was inconclusive: 12.6 µM [inhibitor, partial curve].

**Q.** With `COc1ccc(C)cc1S(=O)(=O)NCC(c1ccc2c(c1)OCO2)N1CCN(C)CC1` (stereo not drawn) as the molecule, how does the Potency read?
**A.** Its Potency is “inactive”.

**Q.** With `N#CCCN(Cc1cccnc1)C(=S)NC(=O)c1ccc(S(=O)(=O)N2CCCC2)cc1` as the molecule, how does the Potency read?
**A.** The Potency was inconclusive: 3.16 µM [inhibitor, full curve, poor fit].

**Q.** For `Cc1cnc(Nc2nc3ccccc3o2)nc1C(=O)Nc1cccc(C(F)(F)F)c1`, which Potency is on record?
**A.** Its Potency is inconclusive: 12.6 µM [inhibitor, single point].

**Q.** For `CCOc1ccc(S(=O)(=O)NCCc2sc(-c3ccc(C)cc3)nc2C)cc1`, which Potency is on record?
**A.** The Potency was inconclusive: 14.1 µM [inhibitor, partial curve, poor fit].

**Q.** Which Potency does the source give for `CCOc1ccccc1N1CC(c2nc3ccccc3n2CCCOc2ccccc2OC)CC1=O` (stereo not drawn) here?
**A.** Its Potency is “inactive”.

**Q.** Which Potency does the source give for `COc1cccc(CNC(=O)Cn2ccc3cc(S(=O)(=O)N4CCCC4)ccc32)c1` here?
**A.** The Potency was inconclusive: 2.82 µM [inhibitor, partial curve, poor fit].

**Q.** With `O=C(CSc1n[nH]c(=O)n1C1CC1)c1ccc2c(c1)OCCO2` as the molecule, how does the Potency read?
**A.** Its Potency is “inactive”.

**Q.** With `Cc1cc(NC(=O)CCCn2nc(C)c([N+](=O)[O-])c2C)no1` as the molecule, how does the Potency read?
**A.** Its Potency is “inactive”.

**Q.** For `CCOc1ccc(/C(O)=C2/C(=O)C(=O)N(CCCN3CCOCC3)C2c2ccc(F)cc2)cc1C` (stereo not drawn), which Potency is on record?
**A.** Its Potency is “inactive”.

**Q.** With `CC(=O)c1ccc(N2CCN(CC(O)COCc3ccco3)CC2)cc1` (stereo not drawn) as the molecule, how does the Potency read?
**A.** The Potency was “inactive”.

**Q.** With `COCCCNCCCOc1ccc(Cl)cc1C(C)(C)C` as the molecule, how does the Potency read?
**A.** Its Potency is inconclusive: 22.4 µM [inhibitor, single point].

**Q.** Which Potency does the source give for `COc1cccc(C2c3[nH]c4ccccc4c3C[C@H]3C(=O)N(C4CCN(Cc5ccccc5)CC4)CC(=O)N23)c1` (stereo partly drawn) here?
**A.** The Potency was inconclusive: 14.1 µM [inhibitor, partial curve, poor fit].

**Q.** Which Potency does the source give for `CCc1ccccc1N1CC(c2nc3ccccc3n2Cc2cccc(C)c2)CC1=O` (stereo not drawn) here?
**A.** Its Potency is active: 6.31 µM.

**Q.** Which Potency does the source give for `O=C(NCc1ccccc1CN1CCOCC1)c1ccc(-n2cccn2)cc1` here?
**A.** The Potency was “inactive”.

**Q.** Which Potency does the source give for `COc1ccc(CCC(=O)NC2CC(=O)N(c3ccc(C)c(C)c3)C2)cc1` (stereo not drawn) here?
**A.** Its Potency is “inactive”.

**Q.** With `COc1ccc(-n2ncc3c2CC(C)(C)CC3NC(=O)CCn2nc(C)cc2C)cc1` (stereo not drawn) as the molecule, how does the Potency read?
**A.** Its Potency is inconclusive: 35.5 µM [inhibitor, single point].

**Q.** Which Potency does the source give for `O=C(N/N=C/c1ccccc1O)c1cccc(C(F)(F)F)c1` here?
**A.** The Potency was inconclusive: 0.891 µM [inhibitor, full curve, poor fit].

**Q.** Which Potency does the source give for `Cc1ccc(NC(=O)c2sc3nc(-c4ccc(F)cc4)cn3c2C)c(C)c1` here?
**A.** Its Potency is inconclusive: 0.112 µM [inhibitor, full curve, poor fit].

**Q.** With `C=C1C(=O)O[C@H]2C[C@]3(C)C([C@@H](OC(=O)/C(C)=C/C)[C@H]12)[C@](C)(O)CC[C@H]3O` (stereo partly drawn) as the molecule, how does the Potency read?
**A.** Its Potency is inconclusive: 22.4 µM [inhibitor, single point].

**Q.** For `CCOc1ccc(S(=O)(=O)Nc2ccc3c(c2)c(C(C)=O)c(C)n3S(=O)(=O)c2ccc(OCC)cc2)cc1`, which Potency is on record?
**A.** The Potency was active: 11.2 µM.

**Q.** Which Potency does the source give for `O=C(CSCc1cccc(CSCC(=O)Nc2ccc3ccccc3c2)n1)Nc1ccc2ccccc2c1` here?
**A.** Its Potency is inconclusive: 35.5 µM [inhibitor, single point].

**Q.** For `CCOC(=O)C1CCN(C(=O)CSc2c3c(nc4ccc(Cl)cc24)CCCC3)CC1`, which Potency is on record?
**A.** The Potency was active: 15.8 µM.

**Q.** For `COc1cccc(CN2CCNC(=O)C2CC(=O)NCC(C)(C)N2CCOCC2)c1OC` (stereo not drawn), which Potency is on record?
**A.** Its Potency is “inactive”.
